Reference: PubChem BioAssay AID504339 (National Center for Advancing Translational Sciences (NCATS), 2011)
“And” between values parts separate entries of the source, which are not always exact repeats. Identical values can stand only once. The whole screen tested about 390,000 compounds, of which about 17,000 (4.4%) were called active. Inconclusive means that the source gave no clear call. Such entries were picked first, then a sample of the others. Calls follow the shape of the dose curve; as a rule, active = well fitted inhibition curve with a large enough effect; inconclusive = small, poorly fitted or top-dose-only effect; inactive = no such curve, though single readings can be large or run the other way. Potencies of inconclusive entries are doubtful fits and often do not repeat.

Target: Lysine-specific demethylase 4A (Homo sapiens) (UniProt O75164)
Assay: qHTS Assay for Inhibitors of JMJD2A-Tudor Domain; also: nearly all actives have a fitted effect of over 50% in size
Settings: AlphaScreen JMJD2A-Tudor / H3K4me3 peptide binding; activity change, negative = inhibition: at 114 µM (top of the series)
% is scaled to controls: 0 for no effect and ±100 for the full control effect; potency is read from the fitted curve at half-maximal effect; tags tell the direction and shape of the fitted curve.

UniProt O75164, sequence (O75164 whole entry, looked up, the tested form may be a part): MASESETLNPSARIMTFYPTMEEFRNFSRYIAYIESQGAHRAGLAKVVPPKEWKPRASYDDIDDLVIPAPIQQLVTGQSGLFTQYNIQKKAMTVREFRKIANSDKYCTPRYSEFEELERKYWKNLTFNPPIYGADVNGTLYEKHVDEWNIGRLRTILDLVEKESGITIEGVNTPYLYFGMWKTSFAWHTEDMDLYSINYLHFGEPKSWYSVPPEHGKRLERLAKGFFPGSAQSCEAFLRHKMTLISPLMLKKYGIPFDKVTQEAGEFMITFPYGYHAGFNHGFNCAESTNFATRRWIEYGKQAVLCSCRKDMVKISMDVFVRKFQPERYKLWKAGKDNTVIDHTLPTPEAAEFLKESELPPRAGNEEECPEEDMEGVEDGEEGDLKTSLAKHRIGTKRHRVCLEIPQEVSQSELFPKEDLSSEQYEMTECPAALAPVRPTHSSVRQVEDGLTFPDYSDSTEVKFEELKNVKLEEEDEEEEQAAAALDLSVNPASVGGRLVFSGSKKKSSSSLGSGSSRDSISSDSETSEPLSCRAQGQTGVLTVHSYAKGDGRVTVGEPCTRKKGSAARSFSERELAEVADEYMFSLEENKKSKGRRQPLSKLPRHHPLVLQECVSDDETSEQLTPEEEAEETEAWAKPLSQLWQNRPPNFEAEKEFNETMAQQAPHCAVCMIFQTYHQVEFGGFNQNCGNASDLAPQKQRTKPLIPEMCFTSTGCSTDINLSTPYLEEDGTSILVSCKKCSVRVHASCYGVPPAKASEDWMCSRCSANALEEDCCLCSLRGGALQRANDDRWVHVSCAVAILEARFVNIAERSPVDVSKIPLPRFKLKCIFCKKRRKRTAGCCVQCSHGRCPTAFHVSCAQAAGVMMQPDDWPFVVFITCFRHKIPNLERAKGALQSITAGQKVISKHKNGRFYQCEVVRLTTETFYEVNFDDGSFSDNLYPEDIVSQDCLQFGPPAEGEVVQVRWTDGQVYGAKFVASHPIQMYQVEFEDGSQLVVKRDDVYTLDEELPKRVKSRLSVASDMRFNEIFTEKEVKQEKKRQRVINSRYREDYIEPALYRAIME

Activity change, negative = inhibition, inactive:
CC(C)N(C)CCOC(=O)C1COc2ccccc2O1 (configuration not stated) -2.01%, Cc1nc(-c2nnc(SCC(=O)Nc3cc(Cl)cc(Cl)c3)n2C)cs1 -5.52%, Cc1nn(C)cc1S(=O)(=O)Nc1cccc(Cl)c1 -13.7%, CC[C@H]1CN2CCc3cc(OC)c(OC)cc3C2C[C@@H]1C[C@H]1NCCc2cc(OC)c(OC)cc21 (some centres not stated) -12.9%, O=C(CCN1C(=O)/C(=C/c2cccs2)SC1=S)Nc1ccccn1 -30.9%, Cc1ccc(NC(=O)c2c(NC(=O)c3ccccc3Cl)sc3c2CCC3)cc1 -11.8%, COc1ccc(CCNC(=O)c2cc3c(=O)oc4ccc(C)cc4c3s2)cc1OC -1.35%, CC(C)NC(=O)Cn1cc(C(=O)C2CC2)c2ccccc21 -22.9%, CC(C)(C)N1CSC(=S)N(Cc2ccccc2)C1 -2.26%, COc1ccc(-c2nsc3c(SCc4ccccc4)ncnc23)cc1 19.7%, CCNc1nc(NCC)nc(N/N=C/c2ccccc2)n1 -22.7%, COc1cc2c(cc1OC)C(C)N(C(=O)CCN1C(=O)C3C4C=CC(C4)C3C1=O)CC2 (configuration not stated) 2.77%, Cc1ccc(-c2nnn(CC(=O)N(c3ccc(F)cc3)C(C(=O)NC3CCCC3)c3ccncc3)n2)o1 (configuration not stated) 2.86%, Cc1ccc(CNC(=O)Cn2c(=O)oc3ccccc32)o1 -8.52%, COc1ccccc1NC(=O)c1cn(-c2ccccc2)nc1-c1ccccc1 -3.31%

Potency, inconclusive:
COc1ccc(NC(=O)CN(C)CC(=O)NCC2CCCCC2)cc1 25.1 µM [inhibitor, partial curve, poor fit], CCN1CCN(c2cc(C)c3cc(NC(=S)NCCCN4CCc5ccccc5C4)ccc3n2)CC1 50.1 µM [inhibitor, partial curve], COc1ccc(OC)c2sc(N(CCN(C)C)C(=O)c3cc(Cl)sc3Cl)nc12 39.8 µM [inhibitor, partial curve], Cc1ccc2nc(Cl)c3cc(C(=O)NCCCN(C)Cc4ccccc4)sc3c2c1 63.1 µM [inhibitor, partial curve, poor fit], O=[N+]([O-])c1ccc(N2CCN(S(=O)(=O)c3ccc(Cl)c(Cl)c3)CC2)cc1NCCN1CCOCC1 2.82 µM [inhibitor, full curve], C=C1c2cccc(OC)c2O[C@H](C(=O)OCC)[C@@H]1CCCCCC 39.8 µM [inhibitor, single point], CNC[C@H]1Oc2ccc(NC(=O)Cc3cn(C)c4ccccc34)cc2CC(=O)N([C@@H](C)CO)C[C@H]1C 56.2 µM [inhibitor, partial curve], Cc1ccc(Cl)c(OCC(=O)NCc2ccco2)c1 50.1 µM [inhibitor, partial curve], CCCCN(CC)S(=O)(=O)c1ccc(C(=O)N(CCCN(C)C)c2nc3cc(C)cc(C)c3s2)cc1 10 µM [inhibitor, full curve], CCOc1ccc(Nc2oc(Cc3ccccc3)nc2C#N)cc1 50.1 µM [inhibitor, partial curve], Cn1nc(-c2ccc(C(=O)N3CCN(Cc4ccccc4)CC3)cc2)c2ccccc2c1=O 79.4 µM [inhibitor, partial curve], Cc1ccc(C(C[N+](=O)[O-])c2c(C)cc3ccccn23)cc1 (configuration not stated) 20 µM [inhibitor, full curve], COc1cccc2sc(N(CCCN(C)C)C(=O)c3sc4ccccc4c3Cl)nc12 22.4 µM [inhibitor, full curve], Cc1ccc2c(c1)c1c3n2CCN(C(=O)c2ccc(C(F)(F)F)cc2)C3CCC1 (configuration not stated) 12.6 µM [inhibitor, full curve], CCOC(=O)c1c(C)oc2c(CC(=O)c3ccccc3)c(Cl)c(O)c(O)c12 7.94 µM [inhibitor, partial curve], Cc1cc(/C=C2/NC(=O)N(Cc3ccccc3F)C2=O)c(C)n1C 44.7 µM [inhibitor, single point], COc1ccc(NCc2nnc(SCC(=O)c3ccc(C)cc3)o2)cc1 20 µM [inhibitor, full curve], CC(C)OC(=O)c1cc(NC(=O)C2C3C=CC(O3)C2C(=O)O)cc(C(=O)OC(C)C)c1 (configuration not stated) 28.2 µM [inhibitor, single point], Cc1ccccc1CN1[C@@H](CC2CCCCC2)COCCS1(=O)=O 14.1 µM [inhibitor, full curve, poor fit], O=C(CNC(=O)c1ccc2cc[nH]c2c1)OC(C(=O)Nc1cc(C(F)(F)F)ccc1Cl)c1ccccc1 (configuration not stated) 63.1 µM [inhibitor, partial curve, poor fit], COc1ccc(N2CCN(C(=O)c3cc4c(-c5ccc(Cl)cc5)nn(C)c4s3)CC2)cc1 50.1 µM [inhibitor, partial curve], O=C(COc1ccc([N+](=O)[O-])cc1)Nc1ccc(S(=O)(=O)N2CCOCC2)cc1 56.2 µM [inhibitor, partial curve], CC(=O)OCON[N+]([O-])=NC(C)C 50.1 µM [inhibitor, partial curve], Cc1cc(C)nc(-n2nc(C)c(Sc3ccc(F)cc3)c2N)n1 56.2 µM [inhibitor, partial curve, poor fit], O=C(CSc1nccn1Cc1ccco1)Nc1cc(C(F)(F)F)ccc1Cl 50.1 µM [inhibitor, partial curve], CCOc1ccccc1NC(=O)CN(C)S(=O)(=O)c1cccc2nsnc12 44.7 µM [inhibitor, partial curve], CCN(CC(=O)Nc1ccc2c(c1)OCCO2)CC(=O)Nc1cc(C)on1 79.4 µM [inhibitor, partial curve], O=C(N/N=C/c1ccccn1)c1[nH]c2ccc([N+](=O)[O-])cc2c1-c1ccccc1 31.6 µM [inhibitor, full curve], Cc1ccc(N2CCN(C(=O)c3cnn(-c4ccc(C)c(C)c4)c3C3CCNCC3)CC2)c(C)c1 89.1 µM [inhibitor, partial curve], NC(=O)CSc1oc(-c2cccs2)nc1S(=O)(=O)c1ccccc1 89.1 µM [inhibitor, single point], Cc1ccc(NC(=S)NC(=O)/C=C/c2ccco2)c(O)c1 25.1 µM [inhibitor, partial curve, poor fit], NC(=O)NC1CCCc2c1[nH]c1ccc(Cl)cc21 (configuration not stated) 44.7 µM [inhibitor, full curve], COc1ccc(N2CCN(C(=O)CNS(=O)(=O)c3ccc(Br)s3)CC2)cc1 56.2 µM [inhibitor, partial curve] and 56.2 µM [inhibitor, partial curve, poor fit], COCCCN=C1NN=C(c2cc(C)n(Cc3ccco3)c2C)CS1 63.1 µM [inhibitor, partial curve, poor fit], Cc1ccc(-n2ncc(C(=O)Nc3cc(Cl)ccc3Cl)c2C2CCNCC2)cc1 10 µM [inhibitor, full curve, poor fit], c1ccc(-c2ccc(C3=Nn4c(nnc4-c4cccs4)SC3)cc2)cc1 25.1 µM [inhibitor, full curve, poor fit], O=C(CSc1nc2cc(S(=O)(=O)N3CCOCC3)ccc2o1)Nc1c(F)cccc1F 79.4 µM [inhibitor, partial curve], CC(=O)N1CCOc2ccc(S(=O)(=O)NCCc3ccc(S(N)(=O)=O)cc3)cc21 15.8 µM [inhibitor, full curve, poor fit], COC(=O)c1cc(S(=O)(=O)NCCN2CCN(c3ccccc3F)CC2)c[nH]1 11.2 µM [inhibitor, full curve, poor fit], CCN1CCN(C(c2ccccc2Cl)c2c(O)cc(C)n(Cc3ccco3)c2=O)CC1 (configuration not stated) 89.1 µM [inhibitor, single point]

Potency, active:
Cc1[nH]n(-c2ncc(-c3ccccc3)s2)c(=O)c1C(c1ccc(Br)cc1)C(C#N)C#N (configuration not stated) 50.1 µM, COc1ccc(-n2nc(C(=O)O)c3csc(N)c3c2=O)cc1 79.4 µM, COc1ccccc1CN(C)CC(=O)Nc1ccc(Cl)cc1C(F)(F)F 3.55 µM, Cc1nc2cc(NCc3ccccc3O)ccc2n1Cc1ccccc1 31.6 µM, COc1cc(C(=O)N(Cc2ccccn2)CC2CCCO2)cc(OC)c1OC (configuration not stated) 17.8 µM, O=C(C1CCN(Cc2ccccc2O)CC1)N1CCN(Cc2ccc3c(c2)OCO3)CC1 2.82 µM, Cc1ccc(-c2cc(C(=O)Nc3ccccc3C)c3ccccc3n2)o1 79.4 µM, O=C1CN(C(=O)CNCc2ccc(Cl)cc2)c2ccccc2N1 10 µM, Cc1cnc(NC(=O)c2ccccn2)s1 56.2 µM, C#CCOCCOCCOCCNc1nc(N2CCN(C(=O)CCCCCCCCCCNC(=O)[C@H](CCCCN)n3cc(C)nn3)CC2)nc(N2CCN(C(=O)CCCCCCCCCCNC(=O)[C@@H]([C@H](C)O)n3cc(C)nn3)CC2)n1 56.2 µM, COc1ccccc1CNC(=O)CCn1cnc2ccccc2c1=O 56.2 µM, O=C(CSc1ccc(-c2ccccn2)nn1)NC1CCCC1 3.16 µM
